The campaign covered roughly 310,000 compounds. About 14,000 (4.5%) showed an effect of 50% or more. The effect is printed as a negative number. The list shows a part of the results.
The compounds below were run against human ether-à-go-go-related gene (hERG) potassium channel (human, UniProt Q12809) (assay: primary screen, population patch clamp on CHO cells stably expressing hERG).
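Further: peak tail current of the secondary pulse compared with the same well before compound.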

Chain of human ether-à-go-go-related gene (hERG) potassium channel (Q12809 whole entry, looked up): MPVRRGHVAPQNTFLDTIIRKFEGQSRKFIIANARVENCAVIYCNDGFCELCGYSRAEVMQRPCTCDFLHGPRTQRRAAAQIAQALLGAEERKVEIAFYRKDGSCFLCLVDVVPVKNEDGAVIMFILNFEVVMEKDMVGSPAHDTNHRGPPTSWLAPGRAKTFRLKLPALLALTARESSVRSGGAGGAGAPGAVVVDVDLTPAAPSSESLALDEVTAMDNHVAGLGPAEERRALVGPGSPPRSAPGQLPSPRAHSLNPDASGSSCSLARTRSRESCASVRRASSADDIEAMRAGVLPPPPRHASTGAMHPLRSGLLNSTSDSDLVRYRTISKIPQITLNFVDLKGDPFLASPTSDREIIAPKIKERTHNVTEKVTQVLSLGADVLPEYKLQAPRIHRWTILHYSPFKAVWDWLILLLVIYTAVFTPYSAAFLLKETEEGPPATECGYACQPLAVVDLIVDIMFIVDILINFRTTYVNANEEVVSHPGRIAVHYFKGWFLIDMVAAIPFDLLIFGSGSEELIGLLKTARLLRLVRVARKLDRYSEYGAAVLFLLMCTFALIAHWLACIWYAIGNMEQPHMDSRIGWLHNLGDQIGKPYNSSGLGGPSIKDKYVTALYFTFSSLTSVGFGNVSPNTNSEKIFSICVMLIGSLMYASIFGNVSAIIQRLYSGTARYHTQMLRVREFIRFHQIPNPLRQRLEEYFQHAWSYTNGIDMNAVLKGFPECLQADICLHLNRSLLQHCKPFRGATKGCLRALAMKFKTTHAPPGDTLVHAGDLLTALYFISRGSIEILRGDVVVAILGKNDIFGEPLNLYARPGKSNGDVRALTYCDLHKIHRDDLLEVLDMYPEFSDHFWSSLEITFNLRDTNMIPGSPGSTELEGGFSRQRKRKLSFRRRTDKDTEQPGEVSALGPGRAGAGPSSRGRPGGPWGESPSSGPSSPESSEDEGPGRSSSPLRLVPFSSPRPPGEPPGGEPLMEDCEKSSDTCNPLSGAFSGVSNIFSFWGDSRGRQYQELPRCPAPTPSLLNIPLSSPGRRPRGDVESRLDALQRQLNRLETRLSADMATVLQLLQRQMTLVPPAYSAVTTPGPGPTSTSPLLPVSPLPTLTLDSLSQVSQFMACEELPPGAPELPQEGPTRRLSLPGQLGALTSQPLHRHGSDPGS

Row | SMILES | hERG current change (%, negative = inhibition) at 10uM
1 | O=C1CC(C(F)(F)C(F)(F)C(F)(F)C(F)F)=Nc2ccccc2N1 | -16.8%
2 | CCCc1cc(=O)oc2cc(OCc3cccc(OC)c3)c(Cl)cc12 | 9.7%
3 | CN1CCc2c(c3ccccc3n2C)C1.Cl | 11.4%
4 | CC(C)(C)N(NC(=O)c1ccccc1)C(=O)c1ccc(C(=O)N(NC(=O)c2ccccc2)C(C)(C)C)cc1 | 1.81%
5 | COC(=O)c1c(-c2snnc2C)n[nH]c1C | -0.281%
6 | C/C(=N\NC(=O)Cc1cccn1C)c1ccco1 | 17.9%
7 | COc1ccccc1/C=C/C=N/NC(=O)Cc1cccn1C | -4.88%
8 | Cc1cc2nnn(-c3nnc(-c4ccccc4)c4ccccc34)c2cc1C | 7.19%
9 | COCCSc1ccccc1C(=O)Nc1ccc2c(c1)OCCO2 | 5.7%
10 | CC(=O)Nc1ccc(Oc2nc(-c3ccccn3)nc3ccccc23)cc1 | -7.53%
11 | COC(=O)c1sc2ccccc2c1NC(=O)c1ccc(S(=O)(=O)N2CCCCC2C)cc1 (stereo not drawn) | 4.64%
12 | Cc1nn(CC(=O)NCc2ccc(C(=O)O)cc2)c(C)c1[N+](=O)[O-] | 21.5%
13 | O=C(COc1coc(CN2CCc3ccccc32)cc1=O)Nc1cccc(F)c1 | 11.9%
14 | COc1cccc(CNC(=O)COc2cccc3c2OC(C)(C)C3)c1 | -14.4%
15 | CCOc1ccccc1CN1CCN(Cc2ccc3cccc(OC)c3n2)CC1CCO (stereo not drawn) | -55.5%
16 | O=C(COC(=O)CNC(=O)c1ccccc1)Nc1nc(-c2ccccc2)cs1 | -6.07%
17 | Cc1oc(-c2ccccc2F)nc1CS(=O)(=O)CC(=O)NCCCN1CCN(C)CC1 | 1.66%
18 | O=S(=O)(c1ccc(Br)cc1)N1CCCN(Cc2cccc(F)c2)CC1 | -17.9%
19 | COc1cc2c(cc1OC)C1=C(C#N)CN(CC(=O)O)CN1CC2 | 10.5%
20 | O=C(NCc1ccc(F)cc1)c1ccc[nH]1 | 14.1%
21 | COC(=O)[C@@H](NC(=O)c1cc(COc2cncc(Cl)c2)on1)c1ccccc1 | -4.11%
22 | Cc1ccc(C(=O)OCC(=O)NC(=O)c2ccc(C(C)(C)C)cc2)c(O)c1 | 9.52%

Row | SMILES | hERG current change (%, negative = inhibition) at 10uM
23 | O=C(OCc1nnc(-c2ccccc2)o1)c1cc([N+](=O)[O-])ccc1Cl | 9.98%
24 | CCC(C)[C@H](NC(=O)NCc1ccccc1Cl)C(=O)O (stereo partly drawn) | 6.86%
25 | CCOc1ccc(NC(=O)C2CCCN(c3nc(C)cc(C)n3)C2)cc1 (stereo not drawn) | 12.4%
26 | CCOc1ccc(CNC(=O)Nc2ccccc2)cc1 | 16.3%
27 | CCCCC(=O)Nc1cc(C(=O)NCCc2ccccc2)ccc1Cl | -17.9%
28 | C[C@H](NC(=O)[C@H](Cc1ccccc1)n1c(=O)[nH]c2ccccc2c1=O)C(=O)N1CCC(C(=O)O)CC1 | 4%
29 | COc1ccc(CCNC(=O)CCN2C(=O)C3CC=CCC3C2=O)cc1OC (stereo not drawn) | 7.71%
30 | CCOc1ccc(/C=C2\C(=O)c3ccccc3OC2c2ccccc2)cc1 (stereo not drawn) | 13.2%
31 | O=C(Cn1nnc(-c2ccccc2NC(=O)c2ccco2)n1)Nc1ccccc1 | 16.1%
32 | CCCCCn1c(=O)[nH]c2c(c1=O)CCC2 | -1.5%
33 | O=C(NCc1nc(-c2ccccc2)no1)c1ccc2c(c1)OCO2 | 7.46%
34 | O=C(c1ccc(Br)o1)N1CCC(Cc2ccccc2)CC1 | -10.5%
35 | COCCn1c(=O)sc2ccccc2c1=O | 12%
36 | COC(=O)[C@H](CC(C)C)NC(=O)N1CCC(C)CC1 | 16.7%
37 | C=CCN1C(=O)/C(=N/n2cnnc2)c2ccccc21 | 27%
38 | CCc1nnc(NC(=O)CCC(=O)NC2CCCc3ccccc32)s1 (stereo not drawn) | -7.77%
39 | O=C(Nc1cccc2ncccc12)c1cccc(F)c1 | -11.1%
40 | COc1ccccc1C(=O)NNC(=O)c1ccc(Br)o1 | 14%
41 | O=C(c1cc2cc(Cl)ccc2oc1=O)N1CCOCC1 | 1.82%
42 | Cl.NCCCC[C@H](NC(=O)C1CCNCC1)c1nnc([C@@H](N)Cc2ccc(O)cc2)o1 | 17.5%
43 | Cc1cccc(S(=O)(=O)NNC(=O)Cc2cccn2C)c1 | 11.9%
44 | N/C(=N\OC(=O)Cc1ccccc1)c1cccc(Br)c1 | 32.7%

Row | SMILES | hERG current change (%, negative = inhibition) at 10uM
45 | Cc1nn(CC(=O)N2CCN(C34CC5CC(CC(C5)C3)C4)CC2)c(C)c1[N+](=O)[O-] | -1.7%
46 | CCOC(=O)/C=C1\SC(C)C(=O)N1CC(=O)N(CCC#N)c1ccccc1 (stereo not drawn) | -32.3%
47 | CCOC(=O)c1c(NC(=O)c2ccc(S(=O)(=O)N3CCOCC3)cc2)sc2c1CCN(C(C)C)C2 | -49.1%
48 | C[N+]1(C)CCc2cc3c(cc2[C@H]1[C@@H]1OC(=O)c2c1ccc1c2OCO1)OCO3.[I-] | 18.8%
49 | O=C(COc1ccc(Cl)cc1Cl)Nc1ccc(C(=O)Nc2ccccc2C(=O)O)cc1 | 2.06%
50 | CSC(=NC#N)N1CCN(c2ccccc2)CC1 | -2.95%
51 | Cc1ccc2nc(/C(C#N)=N/O)[nH]c2c1 | 18.2%
52 | Cc1ccc(C)c(NC(=S)NNC(=O)c2csc3c2CCC(C)C3)c1 (stereo not drawn) | 3.17%
53 | COc1ccc(Cl)cc1C(=O)NN=C1CCCC1 | -5.93%
54 | O=C(c1ccc2c(c1)OCCO2)N1CCN(c2ccc([N+](=O)[O-])cc2)CC1 | -47.1%
55 | C#CCOCCOCCOCCNc1nc(N2CCN(C(=O)[C@H](CCCC[NH3+])n3cc(CC(C)O)nn3)CC2)nc(N2CCN(C(=O)[C@H](CCCC[NH3+])n3cc(CC(C)O)nn3)CC2)n1.[Cl-] (stereo partly drawn) | 2.92%
56 | CC(C)(C)[C@H]1CCC(=O)N([C@H](CSc2ccc(Br)cc2)Cc2ccccc2)CC1 | 4.84%
57 | O=C(c1ccc(Cl)c(Cl)c1)N1CCOCC1 | -1.75%
58 | CN(CC(=O)Nc1ccccc1Cl)C(=O)COC(=O)c1ccc(Cl)cc1[N+](=O)[O-] | -4.29%
59 | Cc1sc(NC(=O)c2ccco2)c(C(c2cccnc2)N2CCN(CCO)CC2)c1C (stereo not drawn) | -20.9%
60 | CC1(C)CC(=O)C2=C(C1)C(c1cn(-c3ccccc3)nc1-c1ccccc1)C(C#N)=C(N)O2 (stereo not drawn) | -13%
61 | Cc1nc(N2CCN(Cc3ccccc3)CC2)[nH]c(=O)c1C | -4.93%
62 | O=C1CCCCCN1Cc1ccccc1 | -0.0219%
63 | COc1ccc(NC(=O)/C(Cl)=C(/Cl)S(=O)Cc2ccccc2)cn1 (stereo not drawn) | -0.451%
64 | O=C(Nc1ccccc1F)NC1CC1 | 15.4%
65 | OCC1(Cc2cccc(Cl)c2)CCCN(Cc2sc(N3CCCC3)nc2Cl)C1 (stereo not drawn) | -1.04%
66 | CCOC(=O)c1sc(NC(=O)C2CC(=O)N(c3ccc(OCC)cc3)C2)nc1C (stereo not drawn) | -14.5%

Row | SMILES | hERG current change (%, negative = inhibition) at 10uM
67 | CC(C)CC1(C(=O)NCc2cc(F)cc(C(F)(F)F)c2)C=CCN1C(=O)c1ccccc1 (stereo not drawn) | 0.637%
68 | COCc1cc(C)nc(SCC[N+](C)(C)CC(=O)Nc2cccc(C)c2)c1C#N.[Cl-] | -33.3%
69 | O=C1C=C(c2ccc(Oc3ccccc3)cc2)C[C@@H](c2ccc3c(c2)OCO3)C1 | 7.39%
70 | CCC(=O)Nc1ccc(C(=O)NNC(=O)c2ccccc2)cc1 | 1.89%
71 | Oc1ccc(-c2onc3ccc(Cl)cc23)cc1 | -6.55%
72 | COC(=O)[C@H](Cc1ccccc1)NC(=O)O[C@H]1C(=O)c2ccc(OC)cc2O[C@@H]1c1ccc2c(c1)OCO2 | 1.54%
73 | C=CCC1(NCc2ccco2)CCN(CC)CC1.O=C(O)C(=O)O | -5.28%
74 | CCOc1cc(CNc2ccc3c(c2)OCCO3)cc(Br)c1OCC | 4.9%
75 | Cc1cc2ncn(C(=O)N3CCC(C)CC3)c2cc1C | -4.06%
76 | Cc1cccc(COc2ccccc2C(=O)OCC(=O)N(C)c2c(N)n(Cc3ccccc3)c(=O)[nH]c2=O)c1 | 20.8%
77 | Cc1cc(C)nc(Nc2cccc(Cl)c2)n1.Cl | 21.8%
78 | O=C(NCc1ccccc1CN1CCCC1)c1cccc(S(=O)(=O)N2CCOCC2)c1 | -44.5%
79 | O=C(Cc1c(F)cccc1Cl)NCC1CCCO1 (stereo not drawn) | 9.86%
80 | Cc1ccc(-c2cc(C(=O)NCc3cnn(C)c3)c3cc(Br)ccc3n2)cc1 | -3.68%
81 | O=C(Nc1nnc(-c2ccccc2F)s1)c1cccnc1 | 5.14%
82 | O=C(Oc1cccc2ccccc12)C1CC1 | 16.6%
83 | CCc1ccc(CN(C)C(=O)CCc2nnc(CCc3ccccc3OC)o2)nc1 | -1.47%
84 | COc1ccccc1OCCNC(=O)Nc1cc(F)c(F)cc1Cl | 2.75%
85 | COc1cc(C(F)(F)F)c(C(=O)N(C)Cc2cc(Cl)cc(Cl)c2)cn1 | -18.9%
86 | COc1ccc(C(=O)N2CC(c3ccccc3)CC2=O)cc1 (stereo not drawn) | 4.56%
87 | CCCN(C(=O)CSc1ncnc2sccc12)c1c(N)n(Cc2ccccc2)c(=O)[nH]c1=O | -11%

Source: paper PMC4336329 (PLoS ONE, 2015)
